These results are taken from publication PMC4336329 (PLoS ONE, 2015).

SMILES strings stand for the structures. In all, about 310,000 compounds went through this assay and about 2,200 (0.71%) showed an effect of 50% or more. Effects have a minus sign here. Some of the results follow.

In the test the target is human ether-à-go-go-related gene (hERG) potassium channel (human, UniProt Q12809). Briefly: primary screen, population patch clamp on CHO cells stably expressing hERG.
Chain of human ether-à-go-go-related gene (hERG) potassium channel (Q12809 whole entry, looked up): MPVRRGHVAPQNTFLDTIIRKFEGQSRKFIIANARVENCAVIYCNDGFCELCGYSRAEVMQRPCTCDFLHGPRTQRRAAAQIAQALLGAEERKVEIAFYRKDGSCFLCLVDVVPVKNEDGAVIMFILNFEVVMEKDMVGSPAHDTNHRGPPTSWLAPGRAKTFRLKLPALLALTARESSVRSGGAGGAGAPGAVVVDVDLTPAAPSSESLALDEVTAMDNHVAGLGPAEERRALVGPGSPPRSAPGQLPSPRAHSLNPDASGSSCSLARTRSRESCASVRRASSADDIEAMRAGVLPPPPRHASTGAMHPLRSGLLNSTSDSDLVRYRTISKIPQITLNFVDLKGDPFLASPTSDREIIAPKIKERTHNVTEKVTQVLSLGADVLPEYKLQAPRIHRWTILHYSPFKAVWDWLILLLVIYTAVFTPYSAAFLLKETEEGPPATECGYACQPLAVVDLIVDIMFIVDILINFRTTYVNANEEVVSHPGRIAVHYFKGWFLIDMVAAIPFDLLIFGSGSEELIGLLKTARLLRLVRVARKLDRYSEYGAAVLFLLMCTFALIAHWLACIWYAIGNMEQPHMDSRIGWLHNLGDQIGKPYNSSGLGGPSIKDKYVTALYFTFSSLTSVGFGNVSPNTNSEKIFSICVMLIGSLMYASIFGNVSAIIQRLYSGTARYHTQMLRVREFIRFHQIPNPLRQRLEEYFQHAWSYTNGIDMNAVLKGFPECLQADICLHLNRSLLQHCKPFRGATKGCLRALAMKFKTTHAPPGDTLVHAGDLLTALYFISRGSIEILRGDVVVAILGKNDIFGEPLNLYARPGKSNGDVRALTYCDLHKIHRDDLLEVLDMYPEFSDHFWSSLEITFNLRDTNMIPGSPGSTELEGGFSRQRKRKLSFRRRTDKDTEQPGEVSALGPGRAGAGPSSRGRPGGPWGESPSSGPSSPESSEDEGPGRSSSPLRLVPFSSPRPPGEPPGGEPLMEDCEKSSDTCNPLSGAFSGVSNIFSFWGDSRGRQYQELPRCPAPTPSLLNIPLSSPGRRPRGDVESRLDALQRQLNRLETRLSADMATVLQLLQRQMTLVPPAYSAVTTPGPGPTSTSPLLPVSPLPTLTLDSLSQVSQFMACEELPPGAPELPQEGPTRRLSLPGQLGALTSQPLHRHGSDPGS
In the case of `COc1ccccc1NC(=O)CNC(=O)c1ccccc1`, the “hERG current change (%, negative = inhibition) at 1uM” value is given as 5.61%.

For the molecule `CC1CC(C)CN(CCCNC(=O)CC2Oc3ccccc3NC2=O)C1` (centres unmarked), the “hERG current change (%, negative = inhibition) at 1uM” value is -0.865%.

Turning to `O=C(Nc1nnc(COc2ccc(F)cc2)s1)Nc1ccccc1F`, the “hERG current change (%, negative = inhibition) at 1uM” value worked out at 9.57%.

Turning to `O=C(Nc1ccc(Cl)cc1N1CCOCC1)C1CC1`, the “hERG current change (%, negative = inhibition) at 1uM” value is 15.1%.

`COc1ccc(N2CCN(C(=O)c3ccncc3)CC2)cc1`: the “hERG current change (%, negative = inhibition) at 1uM” value was -15.1%.

For the molecule `CCOC(=O)N1CCN(C(=O)CSc2ccc(-c3ccncc3)nn2)CC1`, the “hERG current change (%, negative = inhibition) at 1uM” value was 8.65%.

For the molecule `CC(C)(C)NC(=O)CSc1ncnc2c1cnn2-c1ccccc1`, the “hERG current change (%, negative = inhibition) at 1uM” value was found to be 2.16%.

Turning to `NC(=O)c1cc(C(=O)c2ccc(Cl)cc2)c[nH]1`, the “hERG current change (%, negative = inhibition) at 1uM” value is recorded as 17%.

With `O=C(NCCc1nc2ccccc2[nH]1)/C(=C/c1ccc2c(c1)OCO2)NC(=O)c1ccccc1`, the “hERG current change (%, negative = inhibition) at 1uM” value is -14.2%.

For the molecule `CCOc1ccc2nc(SC(C)C(N)=O)[nH]c2c1` (centres unmarked), the “hERG current change (%, negative = inhibition) at 1uM” value was 15.5%.

With `O=C(CCc1nc2ccccc2s1)c1ccccc1`, the “hERG current change (%, negative = inhibition) at 1uM” value was found to be 18.4%.

In the case of `C1CCCC(NC2=NCCO2)CCC1`, the “hERG current change (%, negative = inhibition) at 1uM” value is on record as 9.24%.

Consider `CC(=O)Nc1ccc(NC(=O)CSc2nnc(NC(=O)C3CC3)s2)cc1`, for which the “hERG current change (%, negative = inhibition) at 1uM” value is listed as 5.05%.

`Cc1noc(C)c1S(=O)(=O)N1CCN(c2ccc([N+](=O)[O-])cc2)CC1`: the “hERG current change (%, negative = inhibition) at 1uM” value is given as -41.4%.

For `CCn1c(SCC(=O)NC(C)c2ccccc2)nc2ccccc21` (centres unmarked), the “hERG current change (%, negative = inhibition) at 1uM” value stood at 17.2%.

Take `Cc1cs/c(=N\N=C\c2cccc([N+](=O)[O-])c2)n1Cc1ccco1`: the “hERG current change (%, negative = inhibition) at 1uM” value turned out to be 12%.

Consider `CCOc1ccc(/C=C/C(=O)N2CCOCC2)cc1OC`, for which the “hERG current change (%, negative = inhibition) at 1uM” value came out at 2.44%.

For the molecule `Cc1ccccc1CN1CCc2c(OCC(=O)N3CCCc4ccccc43)cccc2C1=O`, the “hERG current change (%, negative = inhibition) at 1uM” value came out at 15.6%.

As for `CCS(=O)(=O)c1ccc(C(=O)Nc2cccc(Cl)c2)c(Cl)c1Cl`, the “hERG current change (%, negative = inhibition) at 1uM” value amounted to 10.5%.

For `COc1ccc(Cl)cc1-c1nc(SCC(=O)NCC2CCCO2)n[nH]1` (centres unmarked), the “hERG current change (%, negative = inhibition) at 1uM” value stood at 10.9%.

Take `CCCCC1=NN2C(=N)CC(=O)N=C2S1`: the “hERG current change (%, negative = inhibition) at 1uM” value came to 7.46%.

For `CCc1ccc(S(=O)(=O)NCc2cn3ccccc3n2)s1`, the “hERG current change (%, negative = inhibition) at 1uM” value was -3.39%.

Consider `CCN1c2ccccc2S(=O)(=O)c2ccccc21`, for which the “hERG current change (%, negative = inhibition) at 1uM” value is given as 4.94%.

With `COc1ccc(NC2CCCN(C(=O)c3ccc(C)nc3)C2)cc1` (centres unmarked), the “hERG current change (%, negative = inhibition) at 1uM” value stood at 2.9%.

As to `CCCCCN(C(=O)CCC(=O)OCC(=O)N(C)Cc1ccc(C)cc1)c1c(N)n(CCCC)c(=O)[nH]c1=O`, the “hERG current change (%, negative = inhibition) at 1uM” value stood at 20.5%.

With `O=C(Oc1ccc2ccc(=O)oc2c1)N1CCOCC1`, the “hERG current change (%, negative = inhibition) at 1uM” value is 5.75%.

With `Cc1ccccc1NS(=O)(=O)c1ccc(C)c(NS(C)(=O)=O)c1C`, the “hERG current change (%, negative = inhibition) at 1uM” value worked out at 15.6%.

Consider `CCn1c(SCC(=O)NC2CCCc3ccccc32)nnc1-c1cccs1` (centres unmarked), for which the “hERG current change (%, negative = inhibition) at 1uM” value is -3.73%.

In the case of `O=[N+]([O-])c1ccccc1Nc1ccc(O)cc1`, the “hERG current change (%, negative = inhibition) at 1uM” value is listed as 15.1%.

As for `Cc1ccc(NC(=O)c2ccc3c(c2)NC(=O)CS3)nc1`, the “hERG current change (%, negative = inhibition) at 1uM” value was 9.74%.

In the case of `O=C(c1cccc(F)c1)N1CCN(C(=O)C2CC2)CC1`, the “hERG current change (%, negative = inhibition) at 1uM” value was found to be 12.3%.

As to `Cc1ccc(N(C(=O)c2snc(C(N)=O)c2N)C(C(=O)NC2CCCC2)c2ccncc2)cc1` (centres unmarked), the “hERG current change (%, negative = inhibition) at 1uM” value worked out at 13.2%.

On to `COc1ccccc1N1C(=O)CC(c2ccccc2)CC1=O`, for which the “hERG current change (%, negative = inhibition) at 1uM” value came to 12.5%.

Regarding `Cn1c(N)c(C(=O)c2cc(-c3ccccc3)nc3ccccc23)c(=O)n(C)c1=O`, the “hERG current change (%, negative = inhibition) at 1uM” value is -1.75%.

In the case of `O=C1CC(/C=C/c2ccco2)=Nc2ccccc2N1`, the “hERG current change (%, negative = inhibition) at 1uM” value is 2.3%.

Turning to `CCO[C@H]1OC(C(N)=O)=C[C@@H](c2coc3ccccc3c2=O)[C@@H]1CCCO`, the “hERG current change (%, negative = inhibition) at 1uM” value is on record as 9.64%.

As to `CCOC(=O)N1CCC(Nc2c(OCC)c(=O)c2=O)CC1`, the “hERG current change (%, negative = inhibition) at 1uM” value is given as 10.7%.

Turning to `O=C(OCC(=O)N1CCN(c2ccccc2)CC1)c1ccc2ncsc2c1`, the “hERG current change (%, negative = inhibition) at 1uM” value is given as 1.45%.

Turning to `Cc1cccc(NC(=O)CS(=O)CC(=O)Nc2cnc3ccccc3c2)c1C` (centres unmarked), the “hERG current change (%, negative = inhibition) at 1uM” value stood at 8.1%.

`COc1cc(OC)cc(OC(=O)C2CCN(C(=O)c3ccc(F)cc3)CC2)c1`: the “hERG current change (%, negative = inhibition) at 1uM” value was 6.59%.

Turning to `COc1ccc(C)cc1NC(=O)c1cc(S(=O)(=O)N2CCCC2)cn1C`, the “hERG current change (%, negative = inhibition) at 1uM” value worked out at 9.7%.

`O=C1/C(=C/c2ccc(Cl)cc2)SC(=S)N1CCC(=O)N1CCCCC1CCO` (centres unmarked): the “hERG current change (%, negative = inhibition) at 1uM” value worked out at 13.9%.

`O=C(Nc1scc(-c2cccs2)c1C(=O)O)c1cccs1`: the “hERG current change (%, negative = inhibition) at 1uM” value turned out to be 9.97%.

As for `Cc1ccccc1/C(N)=N/O`, the “hERG current change (%, negative = inhibition) at 1uM” value was found to be 3.32%.

In the case of `C/C(Cn1nnc2ccccc21)=N\NC(=O)c1cccc(Br)c1`, the “hERG current change (%, negative = inhibition) at 1uM” value is given as 0.0846%.

Regarding `Cc1cccc(Nc2nc(N)nc(CN3CCN(Cc4ccc5c(c4)OCO5)CC3)n2)c1`, the “hERG current change (%, negative = inhibition) at 1uM” value was -74.3%.

Consider `O=C(CCCC1=NS(=O)(=O)c2ccccc2N1)NCCc1ccc(Cl)cc1`, for which the “hERG current change (%, negative = inhibition) at 1uM” value stood at 10.6%.

On to `Cc1ccc(Nc2nnc(SCC(=O)NC(Cc3c[nH]c4ccccc34)C(=O)O)s2)cc1` (centres unmarked), for which the “hERG current change (%, negative = inhibition) at 1uM” value is recorded as 13.1%.

With `C=CCNC(=O)c1ccc(C)c(Br)c1`, the “hERG current change (%, negative = inhibition) at 1uM” value is 9.1%.

Consider `COc1cc(C2Nc3ccc4ccccc4c3C3=C2C(=O)CC(C)(C)C3)ccc1OC(C)C(=O)O` (centres unmarked), for which the “hERG current change (%, negative = inhibition) at 1uM” value is reported as 13.4%.

Take `CC1=CCC2C(=O)N(c3ccc(N4CCOCC4)cc3)C(=O)C2C1` (centres unmarked): the “hERG current change (%, negative = inhibition) at 1uM” value is listed as 7.46%.

For `COc1ccc([N+](=O)[O-])cc1N(CC(=O)NCCCOC(C)C)S(C)(=O)=O`, the “hERG current change (%, negative = inhibition) at 1uM” value was 8.33%.

Take `CCCC/C=C1\CCc2c([nH]c3ccccc23)C1=O`: the “hERG current change (%, negative = inhibition) at 1uM” value came to 11.6%.

As for `O=C1CCCCC1C(O)c1ccc(Cl)cc1` (centres unmarked), the “hERG current change (%, negative = inhibition) at 1uM” value came to 10.2%.

As to `COc1ccc(OC)c(S(=O)(=O)NCCO)c1`, the “hERG current change (%, negative = inhibition) at 1uM” value amounted to 12.2%.

As to `NC(=O)CSc1ncc(-c2ccc([N+](=O)[O-])cc2)[nH]1`, the “hERG current change (%, negative = inhibition) at 1uM” value was 4.81%.

Take `Cc1ccc(S(=O)(=O)c2ccc(Cl)cc2)cc1S(=O)(=O)NC(C)C(=O)O` (centres unmarked): the “hERG current change (%, negative = inhibition) at 1uM” value is recorded as 20.1%.

As to `Brc1ccc(-c2noc(-c3ccccc3)n2)o1`, the “hERG current change (%, negative = inhibition) at 1uM” value was 9.37%.

For `CSc1nc2c(cnn2-c2ccc(C)c(C)c2)c(=O)[nH]1`, the “hERG current change (%, negative = inhibition) at 1uM” value was 19.3%.
